# According to the supplement of paper PMC8728848:
# The other results are listed elsewhere or left out.
# B1: GH98CBM (Clostridium perfringens) (protein)
# chain: EVYALEESRDVYLSDLDWLNATHGDDTKSKIVQKNHPFTPGNNNQSTKISLKMEDGSISEFEKGLGTIAGSPSTITYDISGAGVTKFFSYLGIDRSANPINEQYAKVDKIEVVVDGKVIYSTINQFPNGLTYETPAIKVDLNIPENAKRLQLKSYAGEKTWGDEVVYADAKFTAKGDFVN
# Legend:
# Assay in all cases: glycan array binding signal (z-score within array); higher = stronger binding
# Settings in all cases: glycan notation: IUPAC condensed, linker removed
# Gal(b1-2)Gal = biological target: Gal(b1-2)Gal
# In short: (§1)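 Arrays were curated from the Consortium for Functional Glycomics database, 3228 in total, and kept only where the protein sequence was available. Binding is expressed as a within-array Z-score. This score was averaged across arrays of the same protein sequence at different concentrations or buffers and across linkers, and negative values can be read as non-binding.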
# Gal(b1-3)Gal = biological target: Gal(b1-3)Gal
# In short: as §1
# Gal(b1-3)Gal(b1-4)GlcNAc = biological target: Gal(b1-3)Gal(b1-4)GlcNAc
# In short: as §1
# Gal(b1-3)GalNAc = biological target: Gal(b1-3)GalNAc
# In short: as §1
# [1] = biological target: Gal(b1-3)GalNAc(b1-3)Gal(a1-4)Gal(b1-4)Glc
# In short: as §1
# [2] = biological target: Gal(b1-3)GalNAc(b1-4)Gal(b1-4)Glc
# In short: as §1
# [3] = biological target: Gal(b1-3)GalNAc(b1-4)[Neu5Ac(a2-3)]Gal(b1-4)Glc
# In short: as §1
# Gal(b1-3)GlcNAc = biological target: Gal(b1-3)GlcNAc
# In short: as §1
# [4] = biological target: Gal(b1-3)GlcNAc(b1-2)Man(a1-3)[Gal(b1-3)GlcNAc(b1-2)Man(a1-6)]Man(b1-4)GlcNAc(b1-4)GlcNAc
# In short: as §1
# [5] = biological target: Gal(b1-3)GlcNAc(b1-3)Gal(b1-3)GlcNAc
# In short: as §1
# [6] = biological target: Gal(b1-3)GlcNAc(b1-3)Gal(b1-4)Glc
# In short: as §1
# [7] = biological target: Gal(b1-3)GlcNAc(b1-3)Gal(b1-4)GlcNAc
# In short: as §1
# [8] = biological target: Gal(b1-3)[Fuc(a1-4)]GlcNAc
# In short: as §1
# [9] = biological target: Gal(b1-3)[Fuc(a1-4)]GlcNAc(b1-3)Gal(b1-3)[Fuc(a1-4)]GlcNAc
# In short: as §1
# [10] = biological target: Gal(b1-3)[Fuc(a1-4)]GlcNAc(b1-3)Gal(b1-4)GlcNAc
# In short: as §1
# [11] = biological target: Gal(b1-3)[Fuc(a1-4)]GlcNAc(b1-3)Gal(b1-4)[Fuc(a1-3)]GlcNAc
# In short: as §1
# [12] = biological target: Gal(b1-3)[GlcNAc(b1-6)]GalNAc
# In short: as §1
# [13] = biological target: Gal(b1-3)[Neu5Ac(a2-6)]GalNAc
# In short: as §1
# [14] = biological target: Gal(b1-3)[Neu5Ac(a2-6)]GlcNAc(b1-6)Gal(b1-4)Glc
# In short: as §1
# [15] = biological target: Gal(b1-3)[Neu5Ac(b2-6)]GalNAc
# In short: as §1
# [16] = biological target: Gal(b1-4)GalNAc(a1-3)[Fuc(a1-2)]Gal(b1-4)GlcNAc
# In short: as §1
# [17] = biological target: Gal(b1-4)GalNAc(b1-3)[Fuc(a1-2)]Gal(b1-4)GlcNAc
# In short: as §1
# Gal(b1-4)Glc = biological target: Gal(b1-4)Glc
# In short: as §1
# Gal(b1-4)Glc6S = biological target: Gal(b1-4)Glc6S
# In short: as §1
# Gal(b1-4)GlcNAc = biological target: Gal(b1-4)GlcNAc
# In short: as §1
# [18] = biological target: Gal(b1-4)GlcNAc(a1-6)Gal(b1-4)GlcNAc
# In short: as §1
# [19] = biological target: Gal(b1-4)GlcNAc(b1-2)Man(a1-3)[Gal(b1-4)GlcNAc(b1-2)Man(a1-6)]Man(b1-4)GlcNAc(b1-4)GlcNAc
# In short: as §1
# [20] = biological target: Gal(b1-4)GlcNAc(b1-3)Gal(b1-3)GlcNAc
# In short: as §1
# [21] = biological target: Gal(b1-4)GlcNAc(b1-3)Gal(b1-4)Glc
# In short: as §1
# [22] = biological target: Gal(b1-4)GlcNAc(b1-3)Gal(b1-4)GlcNAc
# In short: as §1
# [23] = biological target: Gal(b1-4)GlcNAc(b1-3)Gal(b1-4)GlcNAc(b1-3)Gal(b1-4)GlcNAc
# In short: as §1
# [24] = biological target: Gal(b1-4)GlcNAc(b1-3)Gal(b1-4)[Fuc(a1-3)]GlcNAc(b1-3)Gal(b1-4)[Fuc(a1-3)]GlcNAc
# In short: as §1
# [25] = biological target: Gal(b1-4)GlcNAc(b1-3)GalNAc
# In short: as §1
# [26] = biological target: Gal(b1-4)GlcNAc(b1-3)[Gal(b1-4)GlcNAc(b1-6)]Gal(b1-4)GlcNAc
# In short: as §1
# [27] = biological target: Gal(b1-4)GlcNAc(b1-3)[GlcNAc(b1-6)]Gal(b1-4)GlcNAc
# In short: as §1
# [28] = biological target: Gal(b1-4)GlcNAc(b1-6)Gal(b1-4)GlcNAc
# In short: as §1
# [29] = biological target: Gal(b1-4)GlcNAc(b1-6)Gal(b1-4)GlcNAc(b1-6)GalNAc
# In short: as §1
# [30] = biological target: Gal(b1-4)GlcNAc(b1-6)GalNAc
# In short: as §1
# [31] = biological target: Gal(b1-4)GlcNAc(b1-6)[Gal(b1-3)]GalNAc
# In short: as §1
# Gal3S(b1-3)GalNAc = biological target: Gal3S(b1-3)GalNAc
# In short: as §1
# Gal3S(b1-3)GlcNAc = biological target: Gal3S(b1-3)GlcNAc
# In short: as §1
# [32] = biological target: Gal3S(b1-3)[Fuc(a1-4)]GlcNAc
# In short: as §1
# Gal3S(b1-4)Glc = biological target: Gal3S(b1-4)Glc
# In short: as §1
# Gal3S(b1-4)Glc6S = biological target: Gal3S(b1-4)Glc6S
# In short: as §1
binder,measurement,setting,value
B1,glycan array binding signal (z-score),Gal(b1-2)Gal,-0.198
same,glycan array binding signal (z-score),Gal(b1-3)Gal,-0.211
same,glycan array binding signal (z-score),Gal(b1-3)Gal(b1-4)GlcNAc,0.136
same,glycan array binding signal (z-score),Gal(b1-3)GalNAc,-0.259
same,glycan array binding signal (z-score),[1],-0.165
same,glycan array binding signal (z-score),[2],0.118
same,glycan array binding signal (z-score),[3],-0.231
same,glycan array binding signal (z-score),Gal(b1-3)GlcNAc,0.36
same,glycan array binding signal (z-score),[4],-0.222
same,glycan array binding signal (z-score),[5],-0.104
same,glycan array binding signal (z-score),[6],-0.271
same,glycan array binding signal (z-score),[7],-0.181
same,glycan array binding signal (z-score),[8],-0.148
same,glycan array binding signal (z-score),[9],-0.194
same,glycan array binding signal (z-score),[10],-0.215
same,glycan array binding signal (z-score),[11],-0.155
same,glycan array binding signal (z-score),[12],-0.234
same,glycan array binding signal (z-score),[13],-0.279
same,glycan array binding signal (z-score),[14],-0.315
same,glycan array binding signal (z-score),[15],-0.254
same,glycan array binding signal (z-score),[16],-0.215
same,glycan array binding signal (z-score),[17],-0.283
same,glycan array binding signal (z-score),Gal(b1-4)Glc,-0.248
same,glycan array binding signal (z-score),Gal(b1-4)Glc6S,-0.136
same,glycan array binding signal (z-score),Gal(b1-4)GlcNAc,-0.262
same,glycan array binding signal (z-score),[18],-0.161
same,glycan array binding signal (z-score),[19],-0.206
same,glycan array binding signal (z-score),[20],-0.252
same,glycan array binding signal (z-score),[21],-0.212
same,glycan array binding signal (z-score),[22],-0.219
same,glycan array binding signal (z-score),[23],0.082
same,glycan array binding signal (z-score),[24],-0.114
same,glycan array binding signal (z-score),[25],-0.188
same,glycan array binding signal (z-score),[26],-0.311
same,glycan array binding signal (z-score),[27],-0.196
same,glycan array binding signal (z-score),[28],-0.182
same,glycan array binding signal (z-score),[29],-0.101
same,glycan array binding signal (z-score),[30],-0.211
same,glycan array binding signal (z-score),[31],-0.24
same,glycan array binding signal (z-score),Gal3S(b1-3)GalNAc,-0.291
same,glycan array binding signal (z-score),Gal3S(b1-3)GlcNAc,-0.009
same,glycan array binding signal (z-score),[32],0.013
same,glycan array binding signal (z-score),Gal3S(b1-4)Glc,-0.221
same,glycan array binding signal (z-score),Gal3S(b1-4)Glc6S,-0.074
